# Earlier results, collected in article PMC12548419 (Journal of Virology, 2025).
# Settings: cited from earlier work
Compound,"chemical stability in acidic buffers (acidic buffers, 30°C, 7 days, HPLC)","chemical stability in aqueous solutions (aqueous solutions, especially acidic conditions (pH <4))",stability and PK properties (free base form)
"O=c1ccn([C@@H]2O[C@](F)(CO)[C@@H](O)[C@H]2O)c(=O)[nH]1 [4′-FlU, 4′-Fluorouridine]",degradation of 4′-FlU in acidic buffers at 30 °C within 7 days,poor chemical stability,
CC(=O)OC[C@@]1(F)O[C@@H](n2ccc(=O)n(COC(=O)c3cccnc3)c2=O)[C@H](OC(C)=O)[C@@H]1OC(C)=O [VV251 in its free base form],,,favorable stability and PK properties
